Measured values taken from the supplement of paper PMC12067093, “Discovery and optimisation of a covalent ligand for TRIM25 and its application to targeted protein ubiquitination” (Chemical Science, 2025).
Of roughly 21,000 targets only a part is listed; those with the largest changes were picked by preference.

Compound: Cc1cc(ccc1-c1ccccc1)C(=O)N1CCCN(CC1)C(=O)CCl [compound 10]
Test: probe-labelled cysteine peptide fold change vs DMSO (competition) (log2 fold change); higher = less target engagement (more negative = stronger competition)
Settings: THP-1, incubation time: 4 h
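Also: competitive profiling in live THP-1 cells: cysteine peptides tagged with an iodoacetamide desthiobiotin (IA-DTB) probe, intensity after compound treatment relative to DMSO-treated cells.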

UniProt Q96C23, sequence (Q96C23 whole entry, looked up): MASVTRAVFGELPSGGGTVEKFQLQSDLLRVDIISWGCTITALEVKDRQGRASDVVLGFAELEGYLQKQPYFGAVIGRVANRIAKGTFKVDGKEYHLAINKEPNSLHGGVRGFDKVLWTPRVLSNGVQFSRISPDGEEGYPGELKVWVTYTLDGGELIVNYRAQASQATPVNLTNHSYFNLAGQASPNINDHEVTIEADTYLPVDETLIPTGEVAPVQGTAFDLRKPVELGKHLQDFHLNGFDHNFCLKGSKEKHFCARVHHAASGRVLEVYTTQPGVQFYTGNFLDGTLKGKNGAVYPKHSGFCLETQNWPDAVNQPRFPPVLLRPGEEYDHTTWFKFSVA
UniProt Q9Y613, sequence (Q9Y613 whole entry, looked up): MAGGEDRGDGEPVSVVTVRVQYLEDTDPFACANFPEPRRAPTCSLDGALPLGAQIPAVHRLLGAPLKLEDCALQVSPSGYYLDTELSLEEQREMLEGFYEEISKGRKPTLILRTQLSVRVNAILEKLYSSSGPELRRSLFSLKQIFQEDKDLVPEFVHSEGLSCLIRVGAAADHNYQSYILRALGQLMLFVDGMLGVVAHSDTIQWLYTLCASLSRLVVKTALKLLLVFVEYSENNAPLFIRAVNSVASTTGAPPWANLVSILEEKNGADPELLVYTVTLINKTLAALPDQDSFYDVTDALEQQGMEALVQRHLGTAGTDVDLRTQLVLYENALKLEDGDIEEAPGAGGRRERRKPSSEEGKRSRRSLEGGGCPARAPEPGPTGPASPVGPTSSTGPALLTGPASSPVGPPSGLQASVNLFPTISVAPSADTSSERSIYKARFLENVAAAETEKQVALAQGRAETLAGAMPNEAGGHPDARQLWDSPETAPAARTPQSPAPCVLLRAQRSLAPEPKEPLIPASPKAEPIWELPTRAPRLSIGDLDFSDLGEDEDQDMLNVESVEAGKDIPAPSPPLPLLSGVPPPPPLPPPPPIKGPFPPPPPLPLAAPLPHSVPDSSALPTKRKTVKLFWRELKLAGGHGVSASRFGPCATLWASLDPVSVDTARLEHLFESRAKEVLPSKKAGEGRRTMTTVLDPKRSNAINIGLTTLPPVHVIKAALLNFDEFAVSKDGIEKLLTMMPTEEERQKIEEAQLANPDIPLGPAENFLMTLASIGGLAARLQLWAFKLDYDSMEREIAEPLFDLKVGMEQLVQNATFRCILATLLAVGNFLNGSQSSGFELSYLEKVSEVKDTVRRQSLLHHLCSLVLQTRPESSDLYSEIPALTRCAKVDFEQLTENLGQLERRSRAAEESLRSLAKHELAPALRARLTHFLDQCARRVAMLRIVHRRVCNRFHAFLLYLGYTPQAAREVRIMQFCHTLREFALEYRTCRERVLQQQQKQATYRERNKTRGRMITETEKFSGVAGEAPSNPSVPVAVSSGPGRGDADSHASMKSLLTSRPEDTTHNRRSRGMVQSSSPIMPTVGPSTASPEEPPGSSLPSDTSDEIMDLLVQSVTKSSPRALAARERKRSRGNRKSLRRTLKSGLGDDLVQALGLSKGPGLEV
UniProt Q92896, sequence (Q92896 whole entry, looked up): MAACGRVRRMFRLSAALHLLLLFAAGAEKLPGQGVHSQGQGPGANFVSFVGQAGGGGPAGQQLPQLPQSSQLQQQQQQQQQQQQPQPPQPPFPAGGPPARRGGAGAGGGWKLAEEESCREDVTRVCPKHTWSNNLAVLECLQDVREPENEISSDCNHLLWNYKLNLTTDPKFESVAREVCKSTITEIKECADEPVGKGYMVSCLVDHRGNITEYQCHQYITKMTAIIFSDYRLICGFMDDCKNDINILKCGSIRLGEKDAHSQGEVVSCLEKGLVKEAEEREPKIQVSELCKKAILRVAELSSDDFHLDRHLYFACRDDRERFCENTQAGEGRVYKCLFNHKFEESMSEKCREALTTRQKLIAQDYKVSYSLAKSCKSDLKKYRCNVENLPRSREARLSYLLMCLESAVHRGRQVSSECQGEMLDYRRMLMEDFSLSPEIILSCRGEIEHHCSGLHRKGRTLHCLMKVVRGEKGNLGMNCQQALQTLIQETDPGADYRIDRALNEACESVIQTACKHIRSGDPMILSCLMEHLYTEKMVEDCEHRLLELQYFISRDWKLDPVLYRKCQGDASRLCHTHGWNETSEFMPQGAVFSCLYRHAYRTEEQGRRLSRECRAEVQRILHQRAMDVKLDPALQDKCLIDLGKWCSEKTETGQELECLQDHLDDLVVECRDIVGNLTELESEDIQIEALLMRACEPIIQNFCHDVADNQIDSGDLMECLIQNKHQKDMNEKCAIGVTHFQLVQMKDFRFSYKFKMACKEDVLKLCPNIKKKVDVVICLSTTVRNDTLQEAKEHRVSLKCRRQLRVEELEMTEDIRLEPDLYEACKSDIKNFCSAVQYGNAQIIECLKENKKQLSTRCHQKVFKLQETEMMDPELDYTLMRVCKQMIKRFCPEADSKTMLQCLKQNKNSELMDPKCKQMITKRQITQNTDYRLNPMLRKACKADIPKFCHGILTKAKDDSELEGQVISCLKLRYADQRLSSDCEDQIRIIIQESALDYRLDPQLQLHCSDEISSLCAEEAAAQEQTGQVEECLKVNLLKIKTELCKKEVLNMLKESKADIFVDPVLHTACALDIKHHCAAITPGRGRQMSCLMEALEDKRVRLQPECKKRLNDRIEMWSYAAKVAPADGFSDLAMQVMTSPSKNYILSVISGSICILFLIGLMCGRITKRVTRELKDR
UniProt P06280, sequence (P06280 whole entry, looked up): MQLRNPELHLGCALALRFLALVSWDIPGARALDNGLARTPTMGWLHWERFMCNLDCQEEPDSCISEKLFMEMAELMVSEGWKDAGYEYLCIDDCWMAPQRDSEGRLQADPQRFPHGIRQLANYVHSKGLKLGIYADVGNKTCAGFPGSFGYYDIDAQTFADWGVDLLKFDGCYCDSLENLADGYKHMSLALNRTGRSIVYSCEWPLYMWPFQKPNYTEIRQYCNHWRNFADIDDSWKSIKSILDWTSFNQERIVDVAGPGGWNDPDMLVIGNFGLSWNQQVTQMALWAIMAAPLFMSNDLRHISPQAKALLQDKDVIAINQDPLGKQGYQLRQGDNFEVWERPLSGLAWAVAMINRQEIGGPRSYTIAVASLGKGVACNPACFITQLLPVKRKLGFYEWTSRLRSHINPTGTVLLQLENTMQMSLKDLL
UniProt P35637, sequence (P35637 whole entry, looked up): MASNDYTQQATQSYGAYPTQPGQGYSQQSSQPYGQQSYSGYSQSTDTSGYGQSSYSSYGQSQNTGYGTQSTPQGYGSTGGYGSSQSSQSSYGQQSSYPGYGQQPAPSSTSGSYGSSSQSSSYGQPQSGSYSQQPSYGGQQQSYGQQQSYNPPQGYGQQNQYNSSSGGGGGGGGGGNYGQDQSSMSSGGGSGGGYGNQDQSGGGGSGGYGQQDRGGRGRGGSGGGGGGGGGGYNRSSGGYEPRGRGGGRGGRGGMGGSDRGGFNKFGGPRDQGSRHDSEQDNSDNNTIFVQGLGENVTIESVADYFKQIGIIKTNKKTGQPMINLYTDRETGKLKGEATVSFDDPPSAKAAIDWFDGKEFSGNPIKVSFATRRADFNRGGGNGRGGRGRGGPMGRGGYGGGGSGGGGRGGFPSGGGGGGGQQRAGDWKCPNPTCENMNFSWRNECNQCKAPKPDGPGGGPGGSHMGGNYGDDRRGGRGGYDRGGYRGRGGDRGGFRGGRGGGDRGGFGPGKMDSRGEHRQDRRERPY
UniProt Q13480, sequence (Q13480 whole entry): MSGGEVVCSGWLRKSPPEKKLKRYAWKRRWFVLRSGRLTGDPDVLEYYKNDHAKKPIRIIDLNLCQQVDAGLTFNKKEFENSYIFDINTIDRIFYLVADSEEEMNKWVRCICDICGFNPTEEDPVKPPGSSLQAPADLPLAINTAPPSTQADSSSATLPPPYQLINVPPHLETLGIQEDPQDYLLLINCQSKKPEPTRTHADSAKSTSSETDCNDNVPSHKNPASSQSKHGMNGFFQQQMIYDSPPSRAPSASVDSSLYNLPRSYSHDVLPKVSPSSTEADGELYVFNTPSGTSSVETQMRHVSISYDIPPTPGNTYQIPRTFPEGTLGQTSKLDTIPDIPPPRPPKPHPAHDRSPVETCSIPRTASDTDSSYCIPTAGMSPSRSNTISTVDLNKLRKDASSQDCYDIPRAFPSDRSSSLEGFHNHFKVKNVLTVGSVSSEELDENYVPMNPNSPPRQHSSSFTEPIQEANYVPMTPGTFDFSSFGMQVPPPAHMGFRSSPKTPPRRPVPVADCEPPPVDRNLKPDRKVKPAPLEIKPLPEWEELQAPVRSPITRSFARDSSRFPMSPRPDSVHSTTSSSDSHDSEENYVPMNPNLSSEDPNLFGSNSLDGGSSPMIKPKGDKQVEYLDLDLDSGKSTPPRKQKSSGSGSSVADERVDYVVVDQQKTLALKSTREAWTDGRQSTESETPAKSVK
UniProt P00505, sequence (P00505 whole entry, looked up): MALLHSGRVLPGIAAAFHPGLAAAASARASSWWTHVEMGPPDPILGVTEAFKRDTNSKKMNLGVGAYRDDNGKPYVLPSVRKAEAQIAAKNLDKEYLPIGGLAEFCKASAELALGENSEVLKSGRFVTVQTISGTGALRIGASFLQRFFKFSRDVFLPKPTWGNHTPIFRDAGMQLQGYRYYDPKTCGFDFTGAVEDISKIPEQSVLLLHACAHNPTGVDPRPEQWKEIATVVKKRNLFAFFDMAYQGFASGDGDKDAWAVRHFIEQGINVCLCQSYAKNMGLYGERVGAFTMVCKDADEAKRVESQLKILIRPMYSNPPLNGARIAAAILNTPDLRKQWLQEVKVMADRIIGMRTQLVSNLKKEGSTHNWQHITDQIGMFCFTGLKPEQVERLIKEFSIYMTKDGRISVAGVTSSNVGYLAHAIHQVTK
UniProt Q8WUU5, sequence (Q8WUU5 whole entry, looked up): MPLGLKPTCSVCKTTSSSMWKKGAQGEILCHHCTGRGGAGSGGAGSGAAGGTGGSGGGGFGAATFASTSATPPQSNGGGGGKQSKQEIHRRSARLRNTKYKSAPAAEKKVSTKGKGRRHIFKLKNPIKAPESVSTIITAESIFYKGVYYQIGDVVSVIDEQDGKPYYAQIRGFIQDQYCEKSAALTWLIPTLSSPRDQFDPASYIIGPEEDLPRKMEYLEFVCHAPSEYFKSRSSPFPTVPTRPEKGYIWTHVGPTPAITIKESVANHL

Target	probe-labelled cysteine peptide fold change (10 µM)	probe-labelled cysteine peptide fold change (50 µM)
FHOD1_Q9Y613_977_IMQFCHTLR (UniProt Q9Y613)	0.161	0.241
FN1_P02751_401_YSFCTDHTVLVQTR (UniProt P02751)	-0.176	-0.219
FKBP5_Q13451_103_KGEICHLLCK (UniProt Q13451)	0.0874	0.295
GBF1_Q92538_1588_LDALEWESCFNK (UniProt Q92538)	-0.0251	0.114
GLA_P06280_223_QYCNHWR (UniProt P06280)	0.134	-0.0482
GAB1_Q13480_213_STSSETDCNDNVPSHK (UniProt Q13480)	0.0157	-0.0415
GOT2_P00505_295_VGAFTMVCK (UniProt P00505)	0.161	-0.0058
GATAD1_Q8WUU5_223_KMEYLEFVCHAPSEYFK (UniProt Q8WUU5)	0.112	-0.000608
FUS_P35637_428_CPNPTCENMNFSWR (UniProt P35637)	0.244	0.255
FSCN1_Q16658_80_DGNVTCER (UniProt Q16658)	-0.148	-0.0453
GSDMD_P57764_56_CVNLSIKDILEPDAAEPDVQR (UniProt P57764)	0.0269	-1.36
GALM_Q96C23_247_HLQDFHLNGFDHNFCLK (UniProt Q96C23)	0.105	0.00436
GLG1_Q92896_140_HTWSNNLAVLECLQDVR (UniProt Q92896)	-0.0255	0.0447
GLRX3_O76003_146_KLTHAAPCMLFMK (UniProt O76003)	-0.359	-1.17
HCCS_P53701_46_GCPVNTEPSGPTCEK (UniProt P53701)	-0.347	-1.01
